Reference: publication PMC3630089, “ATP-Dependent Chromatin Remodeling by Cockayne Syndrome Protein B and NAP1-Like Histone Chaperones Is Required for Efficient Transcription-Coupled DNA Repair” (PLoS Genetics, 2013)
These are yes or no findings as the source states them, for the method shown. Binding seen in cells or lysates may run through a third protein. Some binding calls cover weakened binding; strength is not graded here. For some of these results: Where a sequence is shown, tags or fusion partners need not be part of it.

Sequences of proteins named here, by UniProt entry; tags and fusion partners are left off. A change or cut given only in a name is not applied to a line headed by its entry. A line that says so, or that is headed by a name, gives the form on record, which may keep a tag or linker.
UniProt Q03468: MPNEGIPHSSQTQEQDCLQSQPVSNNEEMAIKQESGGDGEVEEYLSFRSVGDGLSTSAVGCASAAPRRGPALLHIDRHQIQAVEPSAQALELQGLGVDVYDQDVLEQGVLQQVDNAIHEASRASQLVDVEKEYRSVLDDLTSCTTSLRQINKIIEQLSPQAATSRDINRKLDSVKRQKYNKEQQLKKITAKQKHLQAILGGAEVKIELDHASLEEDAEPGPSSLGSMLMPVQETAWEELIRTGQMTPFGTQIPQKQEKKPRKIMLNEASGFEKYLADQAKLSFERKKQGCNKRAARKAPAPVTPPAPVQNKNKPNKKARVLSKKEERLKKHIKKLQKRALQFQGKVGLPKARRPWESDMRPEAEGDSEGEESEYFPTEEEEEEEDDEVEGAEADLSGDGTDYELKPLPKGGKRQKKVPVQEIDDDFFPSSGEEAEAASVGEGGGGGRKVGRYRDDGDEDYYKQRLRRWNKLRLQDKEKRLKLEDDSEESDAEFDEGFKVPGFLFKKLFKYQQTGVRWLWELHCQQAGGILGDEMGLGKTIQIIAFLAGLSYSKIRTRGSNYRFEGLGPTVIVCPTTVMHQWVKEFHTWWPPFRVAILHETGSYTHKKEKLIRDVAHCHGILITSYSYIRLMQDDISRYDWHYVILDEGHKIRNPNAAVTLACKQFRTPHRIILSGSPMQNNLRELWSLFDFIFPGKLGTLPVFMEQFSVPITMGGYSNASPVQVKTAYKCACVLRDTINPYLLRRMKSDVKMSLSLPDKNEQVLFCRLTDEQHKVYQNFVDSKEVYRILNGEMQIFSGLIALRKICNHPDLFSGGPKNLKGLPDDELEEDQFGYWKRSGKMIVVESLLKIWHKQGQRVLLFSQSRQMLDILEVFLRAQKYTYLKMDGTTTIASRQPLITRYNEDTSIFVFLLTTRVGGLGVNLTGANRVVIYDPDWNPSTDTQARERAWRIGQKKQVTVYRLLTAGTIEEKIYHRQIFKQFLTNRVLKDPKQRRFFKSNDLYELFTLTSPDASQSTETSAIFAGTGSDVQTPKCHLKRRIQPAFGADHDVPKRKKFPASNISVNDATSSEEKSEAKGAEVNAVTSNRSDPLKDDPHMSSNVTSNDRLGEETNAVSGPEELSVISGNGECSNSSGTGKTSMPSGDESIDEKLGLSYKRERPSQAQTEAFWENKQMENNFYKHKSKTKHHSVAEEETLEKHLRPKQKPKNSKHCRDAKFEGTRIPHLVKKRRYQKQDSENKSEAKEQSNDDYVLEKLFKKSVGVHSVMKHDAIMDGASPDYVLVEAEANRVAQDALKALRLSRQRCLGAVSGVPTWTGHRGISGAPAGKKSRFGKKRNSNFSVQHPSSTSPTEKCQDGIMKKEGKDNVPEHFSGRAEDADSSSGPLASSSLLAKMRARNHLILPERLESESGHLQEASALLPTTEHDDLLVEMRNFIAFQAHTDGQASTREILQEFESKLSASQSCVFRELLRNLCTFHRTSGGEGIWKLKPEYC
CSBΔN1 stably expressed in CS1AN-Sv cells (Q03468, form named): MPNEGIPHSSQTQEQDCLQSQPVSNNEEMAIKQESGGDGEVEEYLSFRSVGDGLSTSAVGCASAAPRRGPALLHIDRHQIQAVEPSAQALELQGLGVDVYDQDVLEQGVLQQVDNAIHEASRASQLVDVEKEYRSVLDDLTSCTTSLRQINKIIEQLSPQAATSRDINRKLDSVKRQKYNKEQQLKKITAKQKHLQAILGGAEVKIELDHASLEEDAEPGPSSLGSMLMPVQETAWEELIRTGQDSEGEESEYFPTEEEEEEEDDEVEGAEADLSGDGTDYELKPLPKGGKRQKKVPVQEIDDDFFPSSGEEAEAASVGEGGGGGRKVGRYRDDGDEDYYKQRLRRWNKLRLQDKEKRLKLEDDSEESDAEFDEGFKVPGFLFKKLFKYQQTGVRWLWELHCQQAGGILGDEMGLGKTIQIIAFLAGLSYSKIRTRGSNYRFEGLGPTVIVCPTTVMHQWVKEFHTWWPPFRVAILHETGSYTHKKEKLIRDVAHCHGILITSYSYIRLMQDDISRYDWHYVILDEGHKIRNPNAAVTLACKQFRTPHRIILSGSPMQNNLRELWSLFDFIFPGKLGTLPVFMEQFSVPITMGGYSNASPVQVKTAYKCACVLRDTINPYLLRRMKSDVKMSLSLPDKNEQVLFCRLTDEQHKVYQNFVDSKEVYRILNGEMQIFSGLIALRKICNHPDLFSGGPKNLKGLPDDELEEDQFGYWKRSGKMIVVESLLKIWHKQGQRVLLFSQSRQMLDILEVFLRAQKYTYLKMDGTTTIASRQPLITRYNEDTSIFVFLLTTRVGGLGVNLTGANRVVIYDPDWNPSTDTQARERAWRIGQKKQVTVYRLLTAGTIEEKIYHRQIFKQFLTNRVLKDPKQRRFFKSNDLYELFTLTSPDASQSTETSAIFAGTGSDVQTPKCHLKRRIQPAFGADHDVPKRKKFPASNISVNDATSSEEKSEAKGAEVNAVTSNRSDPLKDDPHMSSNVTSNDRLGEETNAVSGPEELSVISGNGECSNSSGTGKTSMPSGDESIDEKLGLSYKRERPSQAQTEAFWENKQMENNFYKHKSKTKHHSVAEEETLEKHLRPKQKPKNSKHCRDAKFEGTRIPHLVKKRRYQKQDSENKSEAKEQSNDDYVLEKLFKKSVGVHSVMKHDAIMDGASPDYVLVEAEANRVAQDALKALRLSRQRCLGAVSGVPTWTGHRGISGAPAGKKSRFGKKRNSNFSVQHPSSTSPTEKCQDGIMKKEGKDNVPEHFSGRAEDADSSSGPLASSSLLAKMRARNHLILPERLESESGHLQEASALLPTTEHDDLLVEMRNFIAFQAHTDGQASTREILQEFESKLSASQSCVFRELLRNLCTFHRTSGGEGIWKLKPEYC
UniProt Q16531: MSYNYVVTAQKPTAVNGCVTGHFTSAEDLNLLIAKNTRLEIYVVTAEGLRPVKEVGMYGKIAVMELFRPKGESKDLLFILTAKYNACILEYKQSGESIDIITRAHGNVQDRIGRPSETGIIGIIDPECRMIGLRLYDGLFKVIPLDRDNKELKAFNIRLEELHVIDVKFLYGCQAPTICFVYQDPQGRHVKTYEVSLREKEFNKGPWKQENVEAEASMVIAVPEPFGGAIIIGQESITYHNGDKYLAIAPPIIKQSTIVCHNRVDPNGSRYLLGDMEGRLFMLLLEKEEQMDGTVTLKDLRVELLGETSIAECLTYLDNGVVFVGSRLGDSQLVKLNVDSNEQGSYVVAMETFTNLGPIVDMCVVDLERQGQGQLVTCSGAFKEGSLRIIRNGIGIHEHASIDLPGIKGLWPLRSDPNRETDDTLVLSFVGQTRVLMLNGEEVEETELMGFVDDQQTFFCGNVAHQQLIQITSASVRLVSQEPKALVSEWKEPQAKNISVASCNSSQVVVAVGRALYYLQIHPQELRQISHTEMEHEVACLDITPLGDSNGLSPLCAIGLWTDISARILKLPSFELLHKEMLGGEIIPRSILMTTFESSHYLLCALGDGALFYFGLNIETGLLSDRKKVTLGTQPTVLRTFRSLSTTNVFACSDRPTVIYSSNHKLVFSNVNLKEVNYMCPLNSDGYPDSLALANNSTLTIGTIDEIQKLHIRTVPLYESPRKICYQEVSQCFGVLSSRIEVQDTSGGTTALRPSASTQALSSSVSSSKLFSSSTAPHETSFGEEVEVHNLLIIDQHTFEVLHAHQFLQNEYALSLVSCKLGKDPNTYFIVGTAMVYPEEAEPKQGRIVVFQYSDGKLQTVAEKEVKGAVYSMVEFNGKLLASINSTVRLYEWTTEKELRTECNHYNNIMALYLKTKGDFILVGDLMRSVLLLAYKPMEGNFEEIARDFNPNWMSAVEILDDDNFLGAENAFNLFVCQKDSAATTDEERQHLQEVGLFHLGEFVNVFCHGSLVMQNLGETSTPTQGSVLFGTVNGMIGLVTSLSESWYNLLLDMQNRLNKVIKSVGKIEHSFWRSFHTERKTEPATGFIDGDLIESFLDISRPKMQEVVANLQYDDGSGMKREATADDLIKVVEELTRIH
UniProt P23025: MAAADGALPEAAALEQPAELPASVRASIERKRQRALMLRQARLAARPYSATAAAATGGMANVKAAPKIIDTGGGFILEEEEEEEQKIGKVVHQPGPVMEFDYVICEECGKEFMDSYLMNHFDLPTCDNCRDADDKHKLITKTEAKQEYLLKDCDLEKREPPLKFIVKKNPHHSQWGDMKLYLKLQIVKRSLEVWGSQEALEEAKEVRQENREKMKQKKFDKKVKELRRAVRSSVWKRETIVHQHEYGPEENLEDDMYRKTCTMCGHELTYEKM
UniProt P19447: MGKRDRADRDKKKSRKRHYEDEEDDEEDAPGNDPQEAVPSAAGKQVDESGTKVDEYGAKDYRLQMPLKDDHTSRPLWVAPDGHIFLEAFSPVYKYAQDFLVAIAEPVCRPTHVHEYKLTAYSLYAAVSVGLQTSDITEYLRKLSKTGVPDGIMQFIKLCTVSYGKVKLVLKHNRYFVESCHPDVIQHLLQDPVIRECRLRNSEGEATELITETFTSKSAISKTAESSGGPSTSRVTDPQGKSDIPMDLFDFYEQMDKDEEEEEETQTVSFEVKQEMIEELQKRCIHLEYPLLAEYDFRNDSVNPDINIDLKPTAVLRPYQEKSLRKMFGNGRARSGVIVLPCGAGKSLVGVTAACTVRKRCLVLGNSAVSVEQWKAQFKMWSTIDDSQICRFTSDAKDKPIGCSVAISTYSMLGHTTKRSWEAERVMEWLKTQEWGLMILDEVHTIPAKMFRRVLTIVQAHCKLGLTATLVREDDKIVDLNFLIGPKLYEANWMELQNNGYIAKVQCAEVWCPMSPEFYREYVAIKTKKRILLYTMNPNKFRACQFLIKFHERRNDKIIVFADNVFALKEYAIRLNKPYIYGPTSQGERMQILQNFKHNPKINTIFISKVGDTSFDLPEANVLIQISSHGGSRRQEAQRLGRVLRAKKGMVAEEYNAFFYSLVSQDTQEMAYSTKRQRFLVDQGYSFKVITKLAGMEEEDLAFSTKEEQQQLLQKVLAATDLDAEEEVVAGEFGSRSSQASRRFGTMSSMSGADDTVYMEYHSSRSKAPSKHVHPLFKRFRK

Key:
[1] = biological target: T1, NAP1L1 (NAP1-like histone chaperone), endogenous in CS1AN-Sv cells (human) (UniProt P55209); experiment: co-IP; CS1AN-Sv cells stably expressing CSB or CSBΔN1, with or without UV treatment (100 J/m^2); immunoprecipitation with an anti-NAP1L1 antibody
T1 sequence: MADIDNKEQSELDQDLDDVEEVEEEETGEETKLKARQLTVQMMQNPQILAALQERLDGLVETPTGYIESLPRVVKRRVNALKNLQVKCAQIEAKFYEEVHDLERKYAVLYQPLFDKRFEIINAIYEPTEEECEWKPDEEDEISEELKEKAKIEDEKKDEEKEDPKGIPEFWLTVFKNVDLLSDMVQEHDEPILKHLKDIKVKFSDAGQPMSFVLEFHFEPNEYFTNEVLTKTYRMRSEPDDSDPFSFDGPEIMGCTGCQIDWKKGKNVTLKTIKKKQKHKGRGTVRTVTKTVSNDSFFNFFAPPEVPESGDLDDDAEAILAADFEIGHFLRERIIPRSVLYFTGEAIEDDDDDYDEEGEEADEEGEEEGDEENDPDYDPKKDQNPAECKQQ

[2] = biological target: T2, NAP1L1, endogenous in HeLa cells (human (endogenous in HeLa)) (UniProt P55209); experiment: co-IP; nuclei from HeLa cells with or without UV treatment (100 J/m^2); immunoprecipitation with an anti-NAP1L1 antibody; Western blot
T2 sequence: T1 sequence

[3] = biological target: T3, NAP1L4, endogenous in HeLa cells (human (endogenous in HeLa)) (UniProt Q99733); experiment: co-IP; endogenous proteins from chromatin-enriched fractions of UV-irradiated HeLa cells; anti-CSB, anti-NAP1L1 or anti-NAP1L4 antibodies cross-linked to Protein A/G agarose beads; Western blot
T3 sequence: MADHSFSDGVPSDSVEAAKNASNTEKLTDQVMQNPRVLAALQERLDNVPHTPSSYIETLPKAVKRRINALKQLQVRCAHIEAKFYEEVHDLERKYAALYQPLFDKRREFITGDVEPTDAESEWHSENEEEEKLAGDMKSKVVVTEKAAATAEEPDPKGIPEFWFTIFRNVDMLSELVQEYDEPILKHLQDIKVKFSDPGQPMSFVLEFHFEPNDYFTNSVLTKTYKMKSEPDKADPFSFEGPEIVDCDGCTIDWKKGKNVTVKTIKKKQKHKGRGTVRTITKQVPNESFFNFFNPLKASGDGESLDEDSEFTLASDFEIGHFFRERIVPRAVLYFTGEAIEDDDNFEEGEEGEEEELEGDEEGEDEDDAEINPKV

[4] = biological target: T2, NAP1L1, endogenous in HeLa cells (human (endogenous in HeLa)); experiment: as above
[5] = biological target: CSB stably expressed in CS1AN-Sv cells (human) (UniProt Q03468); experiment: ChIP-western (immunoprecipitation after formaldehyde cross-linking); CS1AN-Sv cells expressing CSB or CSBΔN1, UV 25 J/m^2 (or 6 J/m^2, chromatin-enriched fraction), 1 hour recovery, fixed with 1% formaldehyde for 10 min, ChIP with anti-CSB antibodies, reverse-crosslinked, Western blot
[6] = biological target: CSBΔN1 stably expressed in CS1AN-Sv cells (human) (UniProt Q03468); experiment: as above
[7] = biological target: CSB stably expressed in CS1AN-Sv cells (human) (UniProt Q03468); experiment: condition: only cells without UV irradiation (mock treated); ChIP-western (immunoprecipitation after formaldehyde cross-linking); as a6 but cells mock treated (no UV irradiation)
[8] = biological target: CSBΔN1 stably expressed in CS1AN-Sv cells (human) (UniProt Q03468); experiment: as above

| Substance | binding [1] | binding [2] | binding [3] | binding [4] | binding [5] | binding [6] | binding [7] | binding [8] |
| --- | --- | --- | --- | --- | --- | --- | --- | --- |
| CSB stably expressed in CS1AN-Sv cells (from UniProt Q03468 1-1493) (enzyme) | binds |  |  |  |  |  |  |  |
| DNA damage-binding protein 1 (DDB1) (from UniProt Q16531 1-1140) |  |  |  |  | binds | binds | no binding | no binding |
| Xeroderma pigmentosum group A-complementing protein (XPA) (from UniProt P23025 1-273) |  |  |  |  | binds | binds | no binding | no binding |

More lines, now with the values ahead:

| binding [1] | binding [2] | binding [3] | binding [4] | binding [5] | binding [6] | binding [7] | binding [8] | Substance |
| --- | --- | --- | --- | --- | --- | --- | --- | --- |
|  | binds | binds | binds |  |  |  |  | CSB, endogenous in HeLa cells (from UniProt Q03468 1-1493) (enzyme) |
|  |  |  |  | binds | binds | no binding | no binding | DNA excision repair protein ERCC3 (from UniProt P19447 1-782) |
